{"source": "PubChem BioAssay AID485294", "about": "(National Center for Advancing Translational Sciences (NCATS), 2010)", "note": "Where “and” joins values, the source holds several entries; their conditions need not be identical. Identical values can stand only once. The campaign covered roughly 370,000 compounds. About 150 (0.041%) were called active. The inconclusive results got no clear call from the source; some entries with a clear call stand among them for comparison. Calls follow the shape of the dose curve; as a rule, active = well fitted inhibition curve with a large enough effect; inconclusive = small, poorly fitted or top-dose-only effect; inactive = flat fitted curve, though single readings scatter. Where the call is inconclusive, the potency comes from a doubtful curve fit. Potency is read from the fitted curve at half-maximal effect; tags tell the direction and shape of the fitted curve."}
{"biological_target": "Beta-lactamase (Escherichia coli (strain K12)) (UniProt P00811)", "sequence (P00811 whole entry, looked up)": "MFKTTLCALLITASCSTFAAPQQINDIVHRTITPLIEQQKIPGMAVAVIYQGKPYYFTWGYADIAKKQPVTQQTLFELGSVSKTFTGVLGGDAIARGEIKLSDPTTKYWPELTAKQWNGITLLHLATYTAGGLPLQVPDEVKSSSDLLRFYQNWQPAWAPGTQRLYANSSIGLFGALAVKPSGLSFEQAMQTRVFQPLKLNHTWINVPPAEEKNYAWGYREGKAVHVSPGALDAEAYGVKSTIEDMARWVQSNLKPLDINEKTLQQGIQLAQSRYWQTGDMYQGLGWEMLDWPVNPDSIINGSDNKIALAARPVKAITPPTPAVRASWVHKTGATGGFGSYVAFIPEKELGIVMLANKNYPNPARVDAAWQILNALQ", "experiment": "qHTS Inhibitors of AmpC Beta-Lactamase (assay with detergent); also: nearly all actives have a fitted effect of over 25% in size;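 as to activity change, negative = inhibition: 0% = no-compound wells and -100% = no-enzyme wells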", "conditions": "AmpC hydrolysis of nitrocefin, absorbance 480 nm, 0.01% Triton; activity change, negative = inhibition: at 114 µM (top of the series)", "summary_of_the_method": "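20 mM phosphate pH 7.0 + 0.01% (detergent screen) or 0.0001% Triton X-100; 5.3 nM AmpC reagent; cpd preinc 15 min RT; nitrocefin (800 uM stock) to start; A480 q20 s × 4 min; Activity was normalised to no-enzyme and no-compound control wells.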"}
{"smiles": "CN1c2ccc(Cl)cc2C(=O)NC1C1CC=CCC1", "note": "(configuration not stated)", "activity change, negative = inhibition": "inactive: 3.35%"}
{"smiles": "CC(=O)C1=C(C)OC(N)=C(C#N)C1c1cc2cccc(C)c2nc1Cl", "note": "(configuration not stated)", "Potency": "inconclusive: 20 µM [inhibitor, full curve]"}
{"smiles": "COc1ccc(CNC(=O)c2ccc(Br)cc2)cc1", "activity change, negative = inhibition": "inactive: 5.38%"}
{"smiles": "O=C(NCCS(=O)(=O)NCc1ccccn1)c1ccccc1", "Potency": "inconclusive: 31.6 µM [inhibitor, partial curve]"}
{"smiles": "NC(=O)CC[C@@H]1NC(=O)[C@H](CO)NC(=O)c2cc([N+](=O)[O-])cc(I)c2NCCCC[C@@H](C(N)=O)NC(=O)[C@H](Cc2ccc(O)cc2)NC1=O", "Potency": "inconclusive: 39.8 µM [inhibitor, partial curve, poor fit]"}
{"smiles": "Cc1ccc(S(=O)(=O)N2CCC(C(=O)OCC(=O)N3CCC(C)CC3)CC2)cc1C", "Potency": "inconclusive: 2.82 µM [inhibitor, full curve, poor fit]"}
{"smiles": "Cc1cccc(NS(=O)(=O)c2ccc(Cl)c(C(=O)Nc3ccccc3C)c2)c1", "activity change, negative = inhibition": "inactive: 5.3%"}
{"smiles": "Cc1ccc(SCC(=O)NCCSCc2ccccc2)cc1", "Potency": "inconclusive: 89.1 µM [inhibitor, single point]"}
{"smiles": "CC(=O)C1=C(C)OC(N)=C(C#N)C1c1cccc2ccccc12", "note": "(configuration not stated)", "activity change, negative = inhibition": "inactive: -3.55%"}
{"smiles": "Cc1csc(NC(=O)Nc2cccc(Cl)c2)n1", "Potency": "inconclusive: 31.6 µM [inhibitor, full curve, poor fit]"}
{"smiles": "COc1ccc(CCNC(=O)CSc2nc3ccccc3nc2Cc2ccc(Cl)cc2)cc1OC", "activity change, negative = inhibition": "inactive: -2.32%"}
{"smiles": "Cc1nc2sccn2c(=O)c1S(=O)(=O)N1CCN(c2ccc(F)cc2)CC1", "Potency": "inconclusive: 31.6 µM [inhibitor, full curve, poor fit]"}
{"smiles": "CC(C)Cc1nc2sc3c(SCC(N)=O)ncnc3c2c2c1CCC2", "activity change, negative = inhibition": "inactive: 6.59%"}
{"smiles": "CC(C)(C)c1ccc(C(=O)Cn2nc(C(=O)O)c3ccccc3c2=O)cc1", "Potency": "inconclusive: 89.1 µM [inhibitor, partial curve]"}
{"smiles": "Cc1ccc(Nc2cc(C)nc(-c3ccccc3O)n2)cc1", "Potency": "inconclusive: 2.24 µM [inhibitor, full curve, poor fit]"}
{"smiles": "CCC(Sc1nc2c(cnn2-c2ccc(Cl)cc2)c(=O)[nH]1)C(=O)OC", "note": "(configuration not stated)", "Potency": "inconclusive: 50.1 µM [inhibitor, partial curve, poor fit]"}
{"smiles": "COc1ccc(/C=N/NC(=O)C(O)(c2ccccc2)c2ccccc2)cc1OC", "Potency": "inconclusive: 0.316 µM [inhibitor, full curve]"}
{"smiles": "Cc1nnc(NC(=O)c2cc(S(=O)(=O)N3CCCCC3)ccc2Cl)s1", "activity change, negative = inhibition": "inactive: 2.62%"}
{"smiles": "CCOCc1c(C(=O)N2CCN(CCOc3ccc(Cl)cc3)CC2)oc2ccccc12", "Potency": "inconclusive: 44.7 µM [inhibitor, partial curve, poor fit]"}
{"smiles": "CC1CCCN(C(=O)N2c3ccccc3Sc3ccccc32)C1", "note": "(configuration not stated)", "Potency": "inconclusive: 1 µM [inhibitor, full curve, poor fit]"}
{"smiles": "O=C(NC(=S)Nc1ccc(N2CCN(C(=O)c3ccccc3)CC2)cc1)c1cccs1", "activity change, negative = inhibition": "inactive: 0.509%"}
{"smiles": "N/C(Cc1cccs1)=N\\OC(=O)COc1ccccc1Cl", "activity change, negative = inhibition": "inactive: -7.66%"}
{"smiles": "Cc1cc(/C=C2\\SC(=S)NC2=O)c(C)n1-c1ccccc1", "activity change, negative = inhibition": "inactive: 7.65%"}
{"smiles": "COc1ccc(-c2c(NC(C)=O)n(C)c3ccccc3c2=O)cc1", "Potency": "inconclusive: 0.631 µM [inhibitor, full curve, poor fit]"}
{"smiles": "O=C(Nc1cccc(C(=O)N2CCCCC2)c1)c1ccccc1Br", "Potency": "inconclusive: 39.8 µM [inhibitor, full curve, poor fit]"}
{"smiles": "CN(C)c1ccc(C(=O)Nc2nc3c(s2)CCCC3)cc1", "Potency": "inconclusive: 3.55 µM [inhibitor, full curve, poor fit]"}
{"smiles": "O=C(O/N=C\\c1ccc(N2CCOCC2)c([N+](=O)[O-])c1)c1ccc(F)cc1", "Potency": "inconclusive: 25.1 µM [inhibitor, full curve]"}
{"smiles": "CCOc1cc(/C=N/N=C2/NC(=O)C(CC(=O)O)S2)ccc1OCc1ccc(Cl)cc1Cl", "note": "(configuration not stated)", "Potency": "inconclusive: 50.1 µM [inhibitor, partial curve]"}
{"smiles": "COc1ccc(S(=O)(=O)N2CCCCCC2)cc1C(=O)N(C)Cc1cccs1", "Potency": "inconclusive: 35.5 µM [inhibitor, single point]"}
{"smiles": "Cc1cccc(C2Nc3cccc4cccc(c34)N2)c1", "activity change, negative = inhibition": "inactive: 1.47%"}
{"smiles": "Cc1ccc(Cl)cc1NC(=O)C1CCC(CNS(=O)(=O)c2cccc3nsnc23)CC1", "note": "(configuration not stated)", "Potency": "inconclusive: 89.1 µM [inhibitor, single point]"}
{"smiles": "CC(=O)N(Cc1cccnc1)c1nc2c(C)c(C)ccc2s1", "activity change, negative = inhibition": "inactive: 1.68%"}
{"smiles": "COc1cccc(CC(NC(C)=O)C(=O)NC2CCN(C(=O)C3CCCCC3)CC2)c1OC", "note": "(configuration not stated)", "Potency": "inconclusive: 3.98 µM [inhibitor, full curve]"}
{"smiles": "COc1ccc(C)cc1NC(=O)c1cnc2sccn2c1=O", "Potency": "inconclusive: 1.12 µM [inhibitor, full curve, poor fit]"}
{"smiles": "Cc1ccc(Cl)cc1NC(=O)CNC(=O)N1CC(=O)Nc2ccccc21", "activity change, negative = inhibition": "inactive: 2.85%"}
{"smiles": "CCOc1ccc(N2C(=O)C3Sc4[nH]c(=O)sc4C(/C=C/c4ccccc4)C3C2=O)cc1", "note": "(configuration not stated)", "Potency": "inconclusive: 0.891 µM [inhibitor, full curve, poor fit]"}
{"smiles": "CCOc1ccc(NC(=O)Nc2cc(C)on2)cc1", "Potency": "inconclusive: 0.631 µM [inhibitor, full curve, poor fit]"}
{"smiles": "CCOC(=O)C(Sc1ncn[nH]1)c1ccccc1", "note": "(configuration not stated)", "Potency": "inconclusive: 0.355 µM [inhibitor, full curve, poor fit]"}
{"smiles": "O=C(CCCN1C(=O)C(c2ccccc2)Oc2cccnc21)Nc1ccc(Br)cc1F", "note": "(configuration not stated)", "activity change, negative = inhibition": "inactive: 2.38%"}
{"smiles": "COc1ccc(N2C(=O)CC(Sc3nnc(-c4ccccc4)o3)C2=O)cc1", "note": "(configuration not stated)", "activity change, negative = inhibition": "inactive: -9.3%"}
{"smiles": "Cc1c(NC(C)c2cc(Cl)ccc2O)c(=O)n(-c2ccccc2)n1C", "note": "(configuration not stated)", "activity change, negative = inhibition": "inactive: 1.48%"}
{"smiles": "CC1=CCP(=O)(c2ccccc2)C1", "note": "(configuration not stated)", "Potency": "inconclusive: 100 µM [inhibitor, partial curve, poor fit]"}
{"smiles": "CCOc1ccccc1CN1CCC(n2nccc2NC(=O)CCc2ccccc2)CC1", "Potency": "inconclusive: 5.01 µM [inhibitor, full curve, poor fit]"}
{"smiles": "CCOc1ccccc1CNC(=O)CCn1ccc2cc(S(=O)(=O)N3CCC(C)CC3)ccc21", "activity change, negative = inhibition": "inactive: 7.94%"}
{"smiles": "CCOc1ccc(Nc2nc(N)c3ccccc3n2)cc1", "activity change, negative = inhibition": "inactive: -12.8%"}
{"smiles": "CCN(C(=O)COC(=O)/C=C/c1ccccc1[N+](=O)[O-])C1CCS(=O)(=O)C1", "note": "(configuration not stated)", "Potency": "inconclusive: 100 µM [inhibitor, single point]"}
{"smiles": "O=C(CCn1nnc2ccccc2c1=O)N[C@@H](Cc1ccccc1)C(=O)O", "Potency": "inconclusive: 0.562 µM [inhibitor, full curve, poor fit]"}
{"smiles": "CC1=C(C(=O)NCc2ccccc2)C(c2ccccc2OCC(N)=O)NC(=O)N1", "note": "(configuration not stated)", "Potency": "inconclusive: 0.562 µM [inhibitor, full curve, poor fit]"}
{"smiles": "CCCCC12CN3CCN(CC(C3)/C1=N\\NC(=O)Nc1ccccc1)C2", "Potency": "inconclusive: 2.51 µM [inhibitor, full curve, poor fit]"}
{"smiles": "COc1ccc(-n2c(=O)cc(N3CCc4ccccc43)[nH]c2=O)cc1", "activity change, negative = inhibition": "inactive: 1.03%"}
{"smiles": "CCC(=O)NCCc1nc2cc(NC(=O)c3cccs3)ccc2n1C", "Potency": "inconclusive: 0.631 µM [inhibitor, full curve, poor fit]"}
{"smiles": "Cc1ccc(NC(=O)Nc2ccon2)cc1Cl", "Potency": "inconclusive: 2.51 µM [inhibitor, full curve]"}
{"smiles": "Cc1ccc(Nc2c(-c3ccco3)nc3nc(C)cc(C)n23)cc1", "activity change, negative = inhibition": "inactive: 2.64%"}
{"smiles": "Cc1cccc(NC(=O)CSc2cccc3cccnc23)c1C", "Potency": "inconclusive: 8.91 µM [inhibitor, full curve]"}
{"smiles": "COC(=O)Cn1c(=NC(=O)c2ccc(OC)cc2)sc2cc(OC)ccc21", "Potency": "inconclusive: 0.794 µM [inhibitor, full curve, poor fit]"}
{"smiles": "CCN(CC(=O)Nc1ccccc1OC)C(=O)c1cc(-c2ccccc2)nn1-c1ccccc1", "Potency": "inconclusive: 3.98 µM [inhibitor, full curve, poor fit]"}
{"smiles": "Cc1cccc(NS(=O)(=O)c2ccc3oc(=O)c4ncn(C)c4c3c2)c1C", "activity change, negative = inhibition": "inactive: -5.69%"}
{"smiles": "CC(=O)Nc1cccc(C(=O)NC2CCCc3c2cnn3-c2ccc(C(C)(C)C)cc2)c1", "note": "(configuration not stated)", "Potency": "inconclusive: 44.7 µM [inhibitor, partial curve, poor fit]"}
{"smiles": "CC1CCN(C2(O)C(=O)Nc3ccc(Cl)cc32)CC1", "note": "(configuration not stated)", "Potency": "inconclusive: 0.316 µM [inhibitor, full curve, poor fit]"}
{"smiles": "COc1ccccc1NC(=O)C(C)NS(=O)(=O)c1ccc(Cl)cc1", "note": "(configuration not stated)", "Potency": "inconclusive: 14.1 µM [inhibitor, full curve]"}
{"smiles": "O=C(CCc1nc(-c2ccccc2F)no1)Nc1ccc(Oc2ccccc2)cc1", "activity change, negative = inhibition": "inactive: -11.6%"}
{"smiles": "Cc1ccc2nc3sc(C(=O)Nc4c(C)[nH]c(=O)[nH]c4=O)c(N)c3cc2c1", "Potency": "inconclusive: 0.562 µM [inhibitor, full curve, poor fit]"}
{"smiles": "CC(=O)c1ccc(OCc2cc(C(=O)N(C)Cc3nc4c(C)cccc4[nH]3)no2)cc1", "Potency": "inconclusive: 5.01 µM [inhibitor, partial curve, poor fit]"}
{"smiles": "N#Cc1c2n(c(=S)n(-c3ccc(OC(F)F)cc3)c1=O)CCCCC2", "Potency": "inconclusive: 100 µM [inhibitor, single point]"}
{"smiles": "CCC(=O)N(Cc1cc2ccccc2[nH]c1=O)c1ccccc1OC", "Potency": "inconclusive: 112 µM [inhibitor, partial curve, poor fit]"}
{"smiles": "COc1ccccc1NC(=O)Cn1nnc(C(=O)NCc2ccc3c(c2)OCO3)c1N", "Potency": "inactive"}
{"smiles": "CN1C2CCC1CC(OC(=O)c1c[nH]c3ccccc13)C2", "note": "(configuration not stated)", "Potency": "inactive and inconclusive: 631 nM [inhibitor, full curve, poor fit]"}
